# Reference: the supplement of paper PMC8728848
# The other results are listed elsewhere or left out.
# Legend:
# Experiment in all cases: glycan array binding signal (z-score within array); higher = stronger binding
# Conditions in all cases: glycan notation: IUPAC condensed, linker removed
# [1] = target: Neu5Ac(a2-3)[Neu5Ac(a2-6)]GalNAc
# In short: (§1)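 The binding signal is a Z-score computed within each array. Data were drawn from 3228 arrays in the Consortium for Functional Glycomics database, restricted to those with a known protein sequence. Scores were averaged over arrays of the same protein sequence at different concentrations or buffers, and over linkers, and negative values can be taken as non-binding.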
# [2] = target: Neu5Ac(a2-6)Gal
# In short: as §1
# [3] = target: Neu5Ac(a2-6)Gal(b1-4)Glc
# In short: as §1
# [4] = target: Neu5Ac(a2-6)Gal(b1-4)GlcNAc
# In short: as §1
# [5] = target: Neu5Ac(a2-6)Gal(b1-4)GlcNAc(b1-2)Man(a1-3)Man(b1-4)GlcNAc(b1-4)GlcNAc
# In short: as §1
# [6] = target: Neu5Ac(a2-6)Gal(b1-4)GlcNAc(b1-2)Man(a1-3)[Gal(b1-4)GlcNAc(b1-2)Man(a1-6)]Man(b1-4)GlcNAc(b1-4)GlcNAc
# In short: as §1
# [7] = target: Neu5Ac(a2-6)Gal(b1-4)GlcNAc(b1-2)Man(a1-3)[GlcNAc(b1-2)Man(a1-6)]Man(b1-4)GlcNAc(b1-4)GlcNAc
# In short: as §1
# [8] = target: Neu5Ac(a2-6)Gal(b1-4)GlcNAc(b1-2)Man(a1-3)[GlcNAc(b1-2)Man(b1-4)GlcNAc(b1-2)Man(a1-6)]Man(b1-4)GlcNAc(b1-4)GlcNAc
# In short: as §1
# [9] = target: Neu5Ac(a2-6)Gal(b1-4)GlcNAc(b1-2)Man(a1-3)[Man(a1-6)]Man(b1-4)GlcNAc(b1-4)GlcNAc
# In short: as §1
# [10] = target: Neu5Ac(a2-6)Gal(b1-4)GlcNAc(b1-2)Man(a1-3)[Neu5Ac(a2-6)Gal(b1-4)GlcNAc(b1-2)Man(a1-6)]Man(b1-4)GlcNAc(b1-4)GlcNAc
# In short: as §1
# [11] = target: Neu5Ac(a2-6)Gal(b1-4)GlcNAc(b1-2)Man(a1-6)Man(b1-4)GlcNAc(b1-4)GlcNAc
# In short: as §1
# [12] = target: Neu5Ac(a2-6)Gal(b1-4)GlcNAc(b1-2)Man(a1-6)[Gal(b1-4)GlcNAc(b1-2)Man(a1-3)]Man(b1-4)GlcNAc(b1-4)GlcNAc
# In short: as §1
# [13] = target: Neu5Ac(a2-6)Gal(b1-4)GlcNAc(b1-2)Man(a1-6)[GlcNAc(b1-2)Man(a1-3)]Man(b1-4)GlcNAc(b1-4)GlcNAc
# In short: as §1
# [14] = target: Neu5Ac(a2-6)Gal(b1-4)GlcNAc(b1-2)Man(a1-6)[Man(a1-3)]Man(b1-4)GlcNAc(b1-4)GlcNAc
# In short: as §1
# [15] = target: Neu5Ac(a2-6)Gal(b1-4)GlcNAc(b1-3)Gal(b1-3)GlcNAc
# In short: as §1
# [16] = target: Neu5Ac(a2-6)Gal(b1-4)GlcNAc(b1-3)Gal(b1-4)GlcNAc
# In short: as §1
# [17] = target: Neu5Ac(a2-6)Gal(b1-4)GlcNAc(b1-3)Gal(b1-4)GlcNAc(b1-3)Gal(b1-4)GlcNAc
# In short: as §1
# [18] = target: Neu5Ac(a2-6)Gal(b1-4)GlcNAc(b1-3)Gal(b1-4)[Fuc(a1-3)]GlcNAc(b1-3)Gal(b1-4)[Fuc(a1-3)]GlcNAc
# In short: as §1
# [19] = target: Neu5Ac(a2-6)Gal(b1-4)GlcNAc(b1-3)GalNAc
# In short: as §1
# [20] = target: Neu5Ac(a2-6)Gal(b1-4)GlcNAc6S
# In short: as §1
# [21] = target: Neu5Ac(a2-6)GalNAc
# In short: as §1
# [22] = target: Neu5Ac(a2-6)GalNAc(b1-4)GlcNAc
# In short: as §1
# [23] = target: Neu5Ac(a2-6)GlcNAc(b1-4)GlcNAc
# In short: as §1
# [24] = target: Neu5Ac(a2-6)GlcNAc(b1-4)GlcNAc(b1-4)GlcNAc
# In short: as §1
# [25] = target: Neu5Ac(a2-8)Neu5Ac
# In short: as §1
# [26] = target: Neu5Ac(a2-8)Neu5Ac(a2-3)Gal(b1-4)Glc
# In short: as §1
# [27] = target: Neu5Ac(a2-8)Neu5Ac(a2-3)[GalNAc(b1-4)]Gal(b1-4)Glc
# In short: as §1
# [28] = target: Neu5Ac(a2-8)Neu5Ac(a2-8)Neu5Ac
# In short: as §1
# [29] = target: Neu5Ac(a2-8)Neu5Ac(a2-8)Neu5Ac(a2-3)Gal(b1-4)Glc
# In short: as §1
# [30] = target: Neu5Ac(a2-8)Neu5Ac(a2-8)Neu5Ac(a2-3)[GalNAc(b1-4)]Gal(b1-4)Glc
# In short: as §1
# [31] = target: Neu5Ac(a2-8)Neu5Ac(a2-8)Neu5Ac(a2-8)Neu5Ac(a2-3)[GalNAc(b1-4)]Gal(b1-4)Glc
# In short: as §1
# [32] = target: Neu5Ac(b1-6)GalNAc
# In short: as §1
# [33] = target: Neu5Ac(b2-6)Gal(b1-4)GlcNAc
# In short: as §1
# [34] = target: Neu5Ac(b2-6)GalNAc
# In short: as §1
# [35] = target: Neu5Ac9Ac(a2-3)Gal(b1-3)GlcNAc
# In short: as §1
# [36] = target: Neu5Ac9Ac(a2-3)Gal(b1-4)GlcNAc
# In short: as §1
# [37] = target: Neu5Ac9Ac(a2-6)Gal(b1-4)GlcNAc
# In short: as §1
# [38] = target: Neu5Gc(a2-3)Gal(b1-3)GlcNAc
# In short: as §1
# [39] = target: Neu5Gc(a2-3)Gal(b1-3)[Fuc(a1-4)]GlcNAc
# In short: as §1
# [40] = target: Neu5Gc(a2-3)Gal(b1-4)Glc
# In short: as §1
# [41] = target: Neu5Gc(a2-3)Gal(b1-4)GlcNAc
# In short: as §1
# [42] = target: Neu5Gc(a2-3)Gal(b1-4)[Fuc(a1-3)]GlcNAc
# In short: as §1
# [43] = target: Neu5Gc(a2-6)Gal(b1-4)GlcNAc
# In short: as §1
# [44] = target: Neu5Gc(a2-6)GalNAc
# In short: as §1
# [45] = target: Neu5Gc(b2-6)Gal(b1-4)GlcNAc
# In short: as §1
binder,measurement,setting,value
"SSA (Sclerotinia sclerotiorum), A7XUK7 (protein) MGFKGVGTYEIVPYQAPSLNLNAWEGKLEPGAVVRTYTRGDKPSDNAKWQVALVAGSGDSAEYLIINVHSGYFLTATKENHIVSTPQISPTDPSARWTIKPATTHQYEVFTINNKVSELGQLTVKDYSTHSGADVLSASAKTADNQKWYFDAK",glycan array binding signal (z-score),[1],-0.089
same,glycan array binding signal (z-score),[2],-0.181
same,glycan array binding signal (z-score),[3],-0.226
same,glycan array binding signal (z-score),[4],-0.364
same,glycan array binding signal (z-score),[5],-0.135
same,glycan array binding signal (z-score),[6],-0.176
same,glycan array binding signal (z-score),[7],-0.226
same,glycan array binding signal (z-score),[8],-0.314
same,glycan array binding signal (z-score),[9],0.429
same,glycan array binding signal (z-score),[10],-0.226
same,glycan array binding signal (z-score),[11],-0.289
same,glycan array binding signal (z-score),[12],-0.252
same,glycan array binding signal (z-score),[13],-0.157
same,glycan array binding signal (z-score),[14],-0.249
same,glycan array binding signal (z-score),[15],-0.157
same,glycan array binding signal (z-score),[16],-0.31
same,glycan array binding signal (z-score),[17],0.022
same,glycan array binding signal (z-score),[18],-0.28
same,glycan array binding signal (z-score),[19],0.402
same,glycan array binding signal (z-score),[20],-0.34
same,glycan array binding signal (z-score),[21],-0.266
same,glycan array binding signal (z-score),[22],-0.208
same,glycan array binding signal (z-score),[23],-0.09
same,glycan array binding signal (z-score),[24],-0.205
same,glycan array binding signal (z-score),[25],-0.215
same,glycan array binding signal (z-score),[26],-0.07
same,glycan array binding signal (z-score),[27],-0.295
same,glycan array binding signal (z-score),[28],-0.257
same,glycan array binding signal (z-score),[29],-0.386
same,glycan array binding signal (z-score),[30],-0.369
same,glycan array binding signal (z-score),[31],-0.112
same,glycan array binding signal (z-score),[32],-0.458
same,glycan array binding signal (z-score),[33],-0.415
same,glycan array binding signal (z-score),[34],-0.258
same,glycan array binding signal (z-score),[35],-0.168
same,glycan array binding signal (z-score),[36],-0.177
same,glycan array binding signal (z-score),[37],-0.29
same,glycan array binding signal (z-score),[38],-0.331
same,glycan array binding signal (z-score),[39],-0.367
same,glycan array binding signal (z-score),[40],-0.187
same,glycan array binding signal (z-score),[41],-0.366
same,glycan array binding signal (z-score),[42],-0.184
same,glycan array binding signal (z-score),[43],-0.202
same,glycan array binding signal (z-score),[44],-0.25
same,glycan array binding signal (z-score),[45],-0.243
